This is one part of the list.
Tested on: PfHDP1 homeodomain (GST-tagged)
Test: gcPBM binding intensity (ln(normalized median fluorescence intensity)); higher = stronger DNA binding
Outline: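 Probes on an Agilent 4 × 180k array were primer-extended, double-stranded and 36 bp long, taken from intergenic genomic regions, with negative controls added. GST-tagged P. falciparum DNA-binding domains from E. coli, about 25 μg on average, were applied to the array for 1 h in 1× PBS containing 1% milk, 0.2 mg/ml BSA, 0.5% salmon testes DNA and 0.03% Triton X-100. Binding intensity, obtained after Alexa488 anti-GST antibody detection and a 488 nm scan, is the highest Masliner-normalised natural-log median intensity across replicate spots of either probe orientation.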

Going from “AAAAATATAATATAATGTACACAAAAAAAAAAAAAT [XGTACX_site4914]” to “TATAAATTTGTTGTTGCATGCAGTATACCAAAAAAA [TGCATGCA_site445]”, the “gcPBM binding intensity (ln)” value rises from 6.56 to 7.18.

First: ATTTGTAATTTATATTCACACATTCAAAAAAATGAG [CACACA_site6057]
Second: TAAAATGTAATCTGAACACACATATTTTTTTAATAT [CACACA_site1768]
The “gcPBM binding intensity (ln)” value of the first is higher: 6.32 for the first, 6.21 for the second.

Compared with TAATATATTTTTAACATGCACTGTATTTTAATATAT, “TAATTAAAGTTATCTACACACCTTTATAGATATATA [CACACA_site7778]” is lower in “gcPBM binding intensity (ln)” value: 7.31 for the first, 6.21 for the second.

First: TATAAAACAAATATATGTACATATCATAGTATAATA [XGTACX_site2965]
Second: TATACAAATATATATGCACACACATATATGTATATG [CACACA_site9007]
The “gcPBM binding intensity (ln)” value of the first is lower: 6.4 for the first, 10 for the second.

Compared with “TCTGGATTGGATTACAAGAAAATAAAATATAAAATA [CACACA_negctrl_site122]”, “AAAAAAAAAAAAAATACACACACACCGATATATATA [CACACA_site8142]” is higher in “gcPBM binding intensity (ln)” value: 6.22 for the first, 6.82 for the second.

First: ATACATATAATAATATGTACATATAATTATATATAT [XGTACX_site913]
Second: AATATAATATACATATGTACATATATATATATATAT [XGTACX_site8218]
The “gcPBM binding intensity (ln)” value of the first is lower: 6.44 for the first, 9.35 for the second.

Compared with “TATAACACACAATGATGTACATTACATTATTTTTTA [XGTACX_site2076]”, TAATATAAATGAAAGGTGCTTTTGCTTTCTTTTTTT is lower in “gcPBM binding intensity (ln)” value: 6.48 for the first, 5.86 for the second.

Going from “ATATATATATATATGTGTACATATTTTTTTGAAGTG [XGTACX_site248]” to “TTTTCTATATAACAACGTACATTTATTATATTATAA [XGTACX_site6148]”, the “gcPBM binding intensity (ln)” value falls from 9.37 to 6.49.

Compared with “AGCAAGACGGGGTGCACACAAACTAATATGCCGAAT [CACACA_site159]”, “TATTACATAATATATGTACACACGCAAATACTTATA [CACACA_site7994]” is lower in “gcPBM binding intensity (ln)” value: 9.51 for the first, 6.52 for the second.

First: CAAAAAAAGTTATACACACACACACGGATATAAATA [CACACA_site6619]
Second: TAACAACGATACAATTGTACAAATTATATATATATA [XGTACX_site4687]
The “gcPBM binding intensity (ln)” value of the first is lower: 6.94 for the first, 8.88 for the second.

Compared with “ATTATGAATTTAAGACGTACAAAAAATTTTTATTCA [XGTACX_site5682]”, “ACAAGTATTCCTTTTGCACACCTTTCTGCACCTTAT [CACACA_site3873]” is higher in “gcPBM binding intensity (ln)” value: 6.36 for the first, 11.1 for the second.

Going from “ATTAAAATAATACGTACACACATGTATAATACATAT [CACACA_site1005]” to AAATACTTATTCGTGGTGCAACAATTTTAAAAATTA, the “gcPBM binding intensity (ln)” value rises from 6.74 to 10.2.

Going from “AATAATATATTATATGCATGTGTATAATTTGATATA [TGCATGCA_site1058]” to “CAAAGGAAATGGTGTACACAATTTTTCCTTTTTCGT [CACACA_site4800]”, the “gcPBM binding intensity (ln)” value falls from 7.01 to 6.

Compared with “TTTGGTTATTTGACCTGTACACATTTAATTATTTTT [XGTACX_site5170]”, “CCCTCAACGAATTTGAGTACACATTTTAAATGATAT [XGTACX_site7763]” is higher in “gcPBM binding intensity (ln)” value: 6.32 for the first, 6.45 for the second.

Compared with “ATCGCAAGATTAATATAAGGAGAAACGTTTATATAT [GTGCAC_negctrl_site267]”, “TTATAACATATAAACATGTTTCATCTTACGTATTTT [GTGCAC_negctrl_site694]” is lower in “gcPBM binding intensity (ln)” value: 6.96 for the first, 6.72 for the second.

Compared with “TGTTATATCAATAATATATAATAATACCCTTCTTTT [CACACA_negctrl_site1682]”, ATAAGAATATATAGAGTGCGTTGAAGAATTATAATA is higher in “gcPBM binding intensity (ln)” value: 6.06 for the first, 6.67 for the second.

Going from “ATATTTAATTTGTATGGTACAGTACGATCTTTCTTT [XGTACX_site5533]” to “TTTTTTTTTTTTTTTTGTACATAATTCCATATTTTT [XGTACX_site1789]”, the “gcPBM binding intensity (ln)” value falls from 6.5 to 6.35.

First: TGATCTTTACACATATTATATATATATAAAAAAAAA [XGTACX_negctrl_site360]
Second: ATTTAAATAATATTCACACACAAAATTAAATTTTAA [CACACA_site6246]
The “gcPBM binding intensity (ln)” value of the first is higher: 6.57 for the first, 6.48 for the second.

Compared with “AAAAAATTAACCGTAACACACACACCGATATATATA [CACACA_site9312]”, “AATCTAGGTATTTATACACACTAAAATAATATACGA [CACACA_site4515]” is lower in “gcPBM binding intensity (ln)” value: 6.8 for the first, 6.51 for the second.

Going from “AAAAAAAAAAGAAACACACACATATAGATTTATAAC [CACACA_site6927]” to “GCTCTAATTAATATTTGTACACACATATTTAACCTA [XGTACX_site6808]”, the “gcPBM binding intensity (ln)” value rises from 6.81 to 6.87.

First: ATAATCCTTAGACACACACACACACGAATAAATAAA [CACACA_site6364]
Second: CGAAAAAATAAAAAAAAAATAAAATAAAATAAATAA [TGCATGCA_negctrl_site278]
The “gcPBM binding intensity (ln)” value of the first is higher: 6.84 for the first, 6.11 for the second.

Going from “CAATATATTTGATTTACACACTTACAATGTATTTAA [CACACA_site5632]” to “TTATACTGTACAAAAAGAATAGCAGTATAACAAAAA [CACACA_negctrl_site755]”, the “gcPBM binding intensity (ln)” value rises from 6.63 to 6.97.

First: AAAAAAAAATCATATTGTACGTAAAAAAAAAAAAAA [XGTACX_site476]
Second: AATATGTTTTGTTAGGTTGGTGTTGGTAGAATGTTT [CACACA_negctrl_site1563]
The “gcPBM binding intensity (ln)” value of the first is lower: 6.39 for the first, 6.74 for the second.

Compared with “ACAGGATTGGTTCAAACACACATATTATAGGACTAT [CACACA_site6455]”, “AAAAAACATTTGATCTGTACGCATAGACAATTATAT [XGTACX_site960]” is lower in “gcPBM binding intensity (ln)” value: 6.53 for the first, 6.3 for the second.

Going from “AATAATATGTTATCTCTTACACATATAAAAAATAAA [XGTACX_negctrl_site370]” to “TAAAAGAAAGCACATACACACACAAAAAAAAAAAAG [CACACA_site8159]”, the “gcPBM binding intensity (ln)” value rises from 6.12 to 6.58.

First: TCTGTAAATATGTATACACACATATATGATCAATAT [CACACA_site3234]
Second: AGTAGAAAAGGAACATGTACGAATTAAAAAAATAAT [XGTACX_site2347]
The “gcPBM binding intensity (ln)” value of the first is higher: 6.99 for the first, 6.8 for the second.

Compared with “AATTAAATGATTTATACATGCATATAAATATAAATA [TGCATGCA_site579]”, “TACACCATGATACATACACACAGACATATACACATT [CACACA_site6601]” is higher in “gcPBM binding intensity (ln)” value: 6.26 for the first, 7.04 for the second.

Compared with “ACATATATATATATATATATATATATATTTATTTAT [CACACA_negctrl_site734]”, “AGAAAAAAAATGTATACACACAAATATAAAGAAGGA [CACACA_site3806]” is lower in “gcPBM binding intensity (ln)” value: 7.3 for the first, 7.09 for the second.

In the case of “AAAATTAATAAATGAGAAAAAAGGATGAATAATGAG [CACACA_negctrl_site1614]”, the “gcPBM binding intensity (ln)” value is reported as 7.17.
